From PubChem BioAssay AID463173 (ICCB-Longwood Screening Facility, Harvard Medical School, 2010)
Among all 52,000 compounds or so, about 1,700 (3.3%) were called active. No stated cut-off is given here; in the data, active means survival mostly below about 52% (no sharp cut-off); inactive means mostly above about 56%. The list shows a part of the results.

tested on: Wild type; assay: growth inhibition of S. aureus wild type versus tarO mutant, primary screen, teichoic acid synthesis inhibitors, RN4220, OD600 (AID 463173); details: S. aureus RN4220 wild type/DeltatarO growth, OD600, 18 h, hits give low values, screened at 18.75 µg/mL (by protocol)

Compound | survival
CN(CC(=O)Nc1cccc(C(F)(F)F)c1)S(=O)(=O)c1cccs1 | inactive: 93%
O=C(c1ccc(CSc2nc3ccncc3n2Cc2cccc(F)c2)cc1)N1CCCCCC1 | inactive: 75%
Cc1cncn1CCc1nc2c3ccccc3nc(SCC(=O)Nc3cccc(Cl)c3)n2n1 | inactive: 80%
COc1ccc2c(c1)C(c1ccc(N3CCOCC3)cc1)=NNC(c1cccnc1)=N2 | inactive: 110%
CCOc1ccccc1NC(=O)c1cc2c(=O)oc3ccccc3c2s1 | inactive: 99%
CCC(Cn1nnc2ccccc2c1=O)NC(=O)Nc1ccc(C)c(C)c1 (stereo not given) | inactive: 90%
Cc1ccc(/C=C/c2nc3ccccc3[nH]2)cc1 | inactive: 60%
CCc1ccc(NC(=O)CCS(=O)(=O)c2ccc3c(c2)n(C)c(=O)c(=O)n3C)cc1 | inactive: 81%
CC(C)COc1ccc(C(=O)N(Cc2ccc(N(C)C)cc2)Cc2ccco2)cc1 | inactive: 80%
CC1CCCCN1c1nnc(NC(=O)Nc2ccccc2F)s1 (stereo not given) | inactive: 71%
CS(=O)(=O)CCC(C(=O)Nc1cccc(C(F)(F)F)c1)N1Cc2ccccc2C1=O (stereo not given) | active: -1%
CC1CCCN(C(=O)c2cc3c(Cl)nc4ccccc4c3s2)C1 (stereo not given) | active: -2%
O=C(c1ccco1)c1cn(CCOc2ccc(F)cc2)c2ccccc12 | inactive: 57%
Cc1ccc(OCc2nc3ccccc3n2CCOc2ccc(Cl)cc2)cc1 | active: 26%
COCCCNC(=O)CSc1nc2cc(OC)c(OC)cc2c2nc(-c3ccccc3)nn12 | inactive: 71%
CC(C)c1ccc(NC(=O)Cn2c(=O)n(CCc3ccccc3)c(=O)c3ccccc32)cc1 | inactive: 97%
CCc1cccc(CC)c1NC(=O)CN1C(=O)C(=O)c2ccccc21 | inactive: 88%
Cc1ccc(Nc2nnc(-c3ccc(C)c(S(=O)(=O)NCc4nc5ccccc5[nH]4)c3)c3ccccc23)cc1 | inactive: 90%
COc1ccc2[nH]c(=O)c(CN(Cc3cccs3)C(=O)c3cccs3)cc2c1 | inactive: 122%
Cc1ccc(-c2nc(SCC(=O)NCc3ccco3)c3c(=O)n(C)c(=O)n(C)c3n2)cc1 | inactive: 77%
Cc1ccc(-c2nnc(Nc3cccc(O)c3)c3ccccc23)cc1S(=O)(=O)N1CCN(C)CC1 | inactive: 70%
Cc1ccccc1OCC(O)Cn1c(=N)n(CCN2CCCCC2)c2ccccc21 (stereo not given) | inactive: 76%
Cc1ccc(C(=O)Nc2cccc(-c3nc4ccccc4o3)c2)c(Cl)c1 | inactive: 70%
CCc1ccc(NC(=O)C(CC)n2c(=O)c(C(F)(F)F)nc3ccccc32)cc1 (stereo not given) | inactive: 81%
Cc1ccc(NC(=O)CC(C)S(=O)(=O)c2ccc3c(c2)NC(=O)CO3)cc1Cl (stereo not given) | inactive: 51%
Cc1nc2nc(SCC(=O)NCc3ccccc3Cl)nn2c(C)c1Cc1ccccc1 | inactive: 68%
COc1cc(NS(=O)(=O)c2ccc3[nH]c4c(c3c2)CCCCCC4)cc(OC)c1 | inactive: 57%
CCOC(=O)Cn1c(=O)c2c(nc3n2CCN3c2ccc(CC)cc2)n(C)c1=O | inactive: 88%

Compound | survival
COc1cc(Cl)c(C)cc1Nc1ncnc2c1nc1n2CCCC1 | inactive: 100%
CCc1nc(-c2cc(S(=O)(=O)N3CCN(c4ccccc4OC)CC3)ccc2OC)no1 | inactive: 69%
Cc1ccc(-c2nnc(Nc3ccc(O)cc3)c3ccccc23)cc1S(=O)(=O)N1CCOCC1 | inactive: 82%
COc1ccc(-c2cc(C(=O)Nc3c(C)nn(Cc4ccc(C)cc4)c3C)no2)cc1OC | inactive: 72%
COc1ccc(Cl)cc1NC(=O)CN1C(=O)COc2ccc(S(=O)(=O)NC3CCCC3)cc21 | inactive: 88%
Cc1ccc(Nc2nn3c(=O)c4cc5c(cc4nc3s2)OCO5)cc1Cl | inactive: 62%
CCOC(=O)c1cc(-c2ccccc2)n(-c2cccc(C(=O)Nc3ccc(OCC)cc3)c2)c1C | active: 10%
CC(=O)N1CCCc2cc(S(=O)(=O)N3CCC(C(=O)NCc4cccc(C)c4)CC3)ccc21 | inactive: 83%
COc1cccc(Cn2c(=O)n(Cc3ccco3)c(=O)c3oc4ccccc4c32)c1 | inactive: 81%
CCCCN(CC)CCNC(=O)Cn1cc2c(n1)-c1c(oc(C(=O)N3CCCC3)c1C)CC2 | inactive: 90%
CN(C(=O)CSc1cn(CC(=O)N2CCOCC2)c2ccccc12)c1ccccc1 | inactive: 92%
CCCOc1cccc(C(=O)N(Cc2ccc(C)o2)C2CCS(=O)(=O)C2)c1 (stereo not given) | inactive: 88%
CCOC(=O)c1cc2c(=O)n3ccccc3nc2n(CC(C)C)c1=NC(=O)c1c(-c2c(F)cccc2Cl)noc1C | inactive: 147%
CCCN(C(=O)c1noc2c1COc1ccc(C)cc1-2)c1ccc(Cl)c(Cl)c1 | inactive: 117%
COc1cc(NC(=O)CC2C(=O)N(c3cccc(C)c3)C(=O)N2Cc2ccc(F)cc2)cc(OC)c1 (stereo not given) | inactive: 83%
COCCNc1sc(S(=O)(=O)c2ccc(C)cc2)nc1S(=O)(=O)c1ccc(C)cc1 | inactive: 118%
CC(=O)Nc1ccc(NC(=O)CSc2nccn2C)cc1 | inactive: 67%
CC(C)NC(=O)CSc1nc2ccccc2[nH]1 | inactive: 108%
C=CCc1c(C)[nH]c(=S)[nH]c1=S | inactive: 105%
COC(=O)c1ccccc1NC(=O)c1c(NC(=O)c2ccco2)sc2c1CCC(C(C)(C)C)C2 (stereo not given) | inactive: 110%
COc1ccccc1OCC(=O)NCC(c1ccc(Cl)cc1)N1CCCCC1 (stereo not given) | inactive: 75%
COc1cccc(CNC(=O)C(=O)Nc2c3c(nn2-c2ccccc2)CSC3)c1 | inactive: 66%
CCN(C(=O)C1CCN(S(=O)(=O)c2ccc3c(c2)CCCN3C(C)=O)CC1)c1cccc(C)c1 | inactive: 78%
Cc1ccc2oc3c(c(=O)c2c1)C(c1ccc(F)cc1)N(Cc1ccc2c(c1)OCO2)C3=O (stereo not given) | inactive: 75%
CC(=O)c1cccc(NC(=O)c2sc(-n3nc(C)c(Cc4ccc5c(c4)OCO5)c3C)nc2C)c1 | inactive: 94%
CCOc1ccc(-c2cccc(NS(=O)(=O)c3c(C)cc(C)cc3C)c2)nn1 | inactive: 82%
COc1ccccc1CCNC(=O)C(=O)NCC(c1ccc2c(c1)OCO2)N1CCOCC1 (stereo not given) | inactive: 82%
